{
  "source": "PubChem BioAssay AID624417",
  "about": "(National Center for Advancing Translational Sciences (NCATS), 2012)",
  "note": "Values joined by “and” are separate entries in the source; they are usually repeats but may differ in a detail not shown here. Equal values may be shown once. Among all 410,000 compounds or so, about 6,400 (1.6%) were called active. The inconclusive results got no clear call from the source; some entries with a clear call stand among them for comparison. Calls come from the whole dose curve; as a rule, active = well fitted inhibition curve with a large enough effect; inconclusive = small, poorly fitted or top-dose-only effect; inactive = no such curve, though single readings can be large or run the other way. Potencies of inconclusive entries are doubtful fits and often do not repeat. % is set by controls: 0 for no effect and ±100 for the full control effect; potency is the fitted concentration of half-maximal effect; tags give direction and shape of the fitted curve.",
  "data": [
    {"target": "Glucagon-like peptide 1 receptor (Homo sapiens) (UniProt P43220)", "sequence (P43220 whole entry, looked up)": "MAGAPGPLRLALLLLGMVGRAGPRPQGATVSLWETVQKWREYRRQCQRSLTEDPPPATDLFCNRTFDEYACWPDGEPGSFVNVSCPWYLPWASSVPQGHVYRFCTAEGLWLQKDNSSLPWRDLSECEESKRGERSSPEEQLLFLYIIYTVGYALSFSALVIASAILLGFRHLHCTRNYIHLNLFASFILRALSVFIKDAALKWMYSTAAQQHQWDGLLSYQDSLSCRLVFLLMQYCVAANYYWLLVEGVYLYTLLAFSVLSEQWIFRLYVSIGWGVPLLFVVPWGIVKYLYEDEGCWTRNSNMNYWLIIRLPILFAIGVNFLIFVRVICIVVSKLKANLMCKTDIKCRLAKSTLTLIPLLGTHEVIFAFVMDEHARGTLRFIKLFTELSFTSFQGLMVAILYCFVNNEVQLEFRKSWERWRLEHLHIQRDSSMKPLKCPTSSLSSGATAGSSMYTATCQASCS", "assay": "qHTS of GLP-1 Receptor Inverse Agonists (Inhibition Mode); note: nearly all actives have a fitted effect of over 55% in size", "details": "HEK293 GLP-1R CRE-luciferase, luminescence, 24 h, GLP-1R form is constitutively active; activity change, negative = inhibition: at 38.3 µM (top of the series) unless noted", "in_short": "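Assay principle: reduced luminescence from a cAMP-responsive reporter in HEK293 cells co-expressing a constitutively active GLP-1R. Conditions: 24 hr compound incubation, 37 deg C, 5% CO2.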", "values": [
      {"smiles": "COc1cccc(C2C(C(=O)Nc3ccc(Cl)cc3)=C(C)Nc3c(C(=O)Nc4ccccc4)cnn32)c1OC", "note": "(stereo not drawn)", "Potency": "inconclusive: 12.6 µM [inhibitor, partial curve, poor fit]"},
      {"smiles": "CCOC(=O)c1cnc2ccccc2c1NCc1ccco1", "activity change, negative = inhibition": "inactive: -22.4%"},
      {"smiles": "Cc1cc(C)cc(NC(=O)c2sc3nc(-c4ccccc4)cn3c2C)c1", "Potency": "inconclusive: 5.62 µM [inhibitor, partial curve]"},
      {"smiles": "Cn1cc(SCC(=O)NCCc2ccccc2)c2ccccc21", "Potency": "inconclusive: 7.94 µM [inhibitor, partial curve, poor fit]"},
      {"smiles": "CCc1c(C#N)c(SCCC(=O)Nc2ccc(F)cc2)nc2c1C(=O)CC(C)(C)C2", "Potency": "inconclusive: 8.91 µM [inhibitor, partial curve, poor fit]"},
      {"smiles": "CCC1CCCCN1C(=S)Nc1ccc(SC(F)F)cc1", "note": "(stereo not drawn)", "Potency": "inconclusive: 28.2 µM [inhibitor, single point]"},
      {"smiles": "Cc1ccc(NC(=O)Cn2c(=O)n(-c3ccc(C)cc3)c(=O)c3ccc(C(=O)NCc4ccccc4Cl)cc32)cc1", "activity change, negative = inhibition": "inactive: 14.5%"},
      {"smiles": "O=C1C[C@@H]2c3c(cccc3CN1Cc1ccccc1F)C[C@@H](O)[C@H]2O", "activity change, negative = inhibition": "inactive: 6.84%"},
      {"smiles": "COc1ccc(CNC(=O)C(c2ccco2)N(C(=O)CNS(=O)(=O)c2ccccc2)c2ccccc2C)cc1", "note": "(stereo not drawn)", "Potency": "inconclusive: 11.2 µM [inhibitor, partial curve, poor fit]"},
      {"smiles": "Oc1ccc(CN2CCN(Cc3ccccc3)CC2)c2cccnc12", "Potency": "inconclusive: 2.24 µM [inhibitor, full curve, poor fit]"},
      {"smiles": "N#CCCN(Cc1cccnc1)C(=S)NC(=O)c1ccccc1", "activity change, negative = inhibition": "inactive: -0.93%"},
      {"smiles": "Cc1cnc(C)c(Nc2nc(C(N)CCc3ccccc3)cs2)n1", "note": "(stereo not drawn)", "Potency": "inconclusive: 8.91 µM [inhibitor, partial curve, poor fit]"},
      {"smiles": "Cc1nnc(NC(=O)C2c3ccccc3Oc3ccccc32)s1", "Potency": "inconclusive: 3.98 µM [inhibitor, partial curve, poor fit]"},
      {"smiles": "Cc1cc(C)n2c(SCc3nnc(-c4cccs4)o3)nnc2n1", "Potency": "inconclusive: 4.47 µM [inhibitor, partial curve, poor fit]"},
      {"smiles": "O=c1[nH]n(-c2ccc([N+](=O)[O-])cc2)c(=O)c2ccccc12", "Potency": "active: 5.01 µM"},
      {"smiles": "COC(=O)COc1cccc(NS(=O)(=O)c2ccc(NC(C)=O)cc2)c1", "activity change, negative = inhibition": "inactive: 5.73%"},
      {"smiles": "CC1CCC2(CC1)NC(=O)N(CC(=O)Nc1ccc(F)cc1)C2=O", "note": "(stereo not drawn)", "Potency": "inconclusive: 31.6 µM [inhibitor, single point]"},
      {"smiles": "CC(=O)Nc1ccc(S(=O)(=O)Nc2cc(Cl)ccc2N2CCOCC2)cc1", "Potency": "inconclusive: 7.94 µM [inhibitor, partial curve, poor fit]"},
      {"smiles": "CCOC(=O)c1ccc(Nc2ncnc3c2cnn3C)cc1", "activity change, negative = inhibition": "inactive: 55.6%"},
      {"smiles": "CN(CCOc1ccccc1)CC(O)COc1ccccc1", "note": "(stereo not drawn)", "Potency": "inconclusive: 8.91 µM [inhibitor, partial curve, poor fit]"},
      {"smiles": "COc1ccc(OC)c(/C=C2\\SC(=S)N(C(C(=O)O)c3ccccc3)C2=O)c1", "note": "(stereo not drawn)", "Potency": "inconclusive: 10 µM [inhibitor, single point]"},
      {"smiles": "O=C1CN(C(=O)c2ccc(Cl)cc2Cl)C(c2ccc(F)cc2)c2cc(F)ccc2N1", "note": "(stereo not drawn)", "Potency": "inconclusive: 28.2 µM [inhibitor, single point]"},
      {"smiles": "CN1C(=O)CSc2ccc(NC(=O)N3CCc4ccccc43)cc21", "Potency": "inconclusive: 11.2 µM [inhibitor, partial curve, poor fit]"},
      {"smiles": "CC(=O)Nc1cc(C(=O)NCc2ccc(F)cc2)ccc1Sc1ccc(C)cc1", "Potency": "inconclusive: 10 µM [inhibitor, single point]"},
      {"smiles": "O=C(c1cccc(S(=O)(=O)N2CCCCCC2)c1)N1CCN(c2ccccc2F)CC1", "Potency": "inconclusive: 12.6 µM [inhibitor, single point]"},
      {"smiles": "C=CCC[C@H](CCCCC)OC(=O)/C=C/[C@@H](O)[C@H](O)C[C@H](O)CC=C", "Potency": "inconclusive: 10 µM [inhibitor, partial curve, poor fit]"},
      {"smiles": "COC(=O)CC1Oc2ccccc2N(Cc2ccc(C)cc2)C1=O", "note": "(stereo not drawn)", "Potency": "inconclusive: 10 µM [inhibitor, partial curve]"},
      {"smiles": "Cc1cc(/C=N\\NC(=O)CC(=O)NC2CCCCC2)c(C)n1-c1ccc(Cl)c(Cl)c1", "Potency": "inconclusive: 12.6 µM [inhibitor, partial curve, poor fit]"},
      {"smiles": "Cc1nn(-c2ccccc2)c(-n2cccc2)c1C(=O)NCc1ccccc1Cl", "Potency": "inconclusive: 11.2 µM [inhibitor, partial curve, poor fit]"},
      {"smiles": "O=C(Nc1c(F)cc(F)cc1Br)c1cc(S(=O)(=O)N2CCN(c3ccccn3)CC2)ccc1F", "Potency": "inconclusive: 31.6 µM [inhibitor, single point]"},
      {"smiles": "CC1CCN(S(=O)(=O)c2ccc3ncn(CC(=O)Nc4ccccc4C(F)(F)F)c(=O)c3c2)CC1", "Potency": "inconclusive: 10 µM [inhibitor, partial curve]"},
      {"smiles": "On1c(-c2ccccc2)nc2ncccc21", "activity change, negative = inhibition": "inactive: 10.4%"},
      {"smiles": "CC(C)n1cc(CN2CCC(n3nccc3NC(=O)Cc3ccccc3)CC2)cn1", "activity change, negative = inhibition": "inactive: -1.58%"},
      {"smiles": "Cc1oc(-c2ccc(Cl)cc2)nc1CS(=O)CC(=O)NCCCN1CCN(Cc2ccccc2)CC1", "note": "(stereo not drawn)", "Potency": "inconclusive: 2.51 µM [inhibitor, full curve, poor fit]"},
      {"smiles": "Cc1ccc(NC(=O)COC(=O)Cn2cnc3c2c(=O)n(C)c(=O)n3C)cc1", "Potency": "inconclusive: 28.2 µM [inhibitor, single point]"},
      {"smiles": "Cc1cccc(N(C(=O)c2csnn2)C(C(=O)NCc2ccccc2)c2ccc(C)o2)c1", "note": "(stereo not drawn)", "Potency": "inconclusive: 1.78 µM [inhibitor, full curve, poor fit]"},
      {"smiles": "C=CCSc1nc(N)c(C#N)c(-c2ccc(C)cc2)c1C#N", "Potency": "inconclusive: 3.98 µM [inhibitor, partial curve]"},
      {"smiles": "CC1CC(C)CN(CC(=O)NCCc2ccc(S(N)(=O)=O)cc2)C1", "note": "(stereo not drawn)", "Potency": "inconclusive: 11.2 µM [inhibitor, single point]"},
      {"smiles": "CCc1nc2c(OCc3ccc(C(=O)OC)cc3)cccn2c1N(C)C(=O)C(C)C", "Potency": "inconclusive: 4.47 µM [inhibitor, full curve, poor fit]"},
      {"smiles": "CC(C)(C)c1ccc(C(=O)Nc2nnc(C3=COCCO3)o2)cc1", "activity change, negative = inhibition": "inactive: -19%"},
      {"smiles": "O=C(CN1CCN(Cc2ccc3c(c2)OCO3)CC1)Nc1cc(S(=O)(=O)N2CCCC2)ccc1Cl", "activity change, negative = inhibition": "inactive: -4.46%"},
      {"smiles": "FC(F)(F)c1ccccc1NC(=S)N1CCN(Cc2ccc3c(c2)OCO3)CC1", "Potency": "inconclusive: 11.2 µM [inhibitor, single point]"},
      {"smiles": "CCN(c1ccc(C)cc1C)S(=O)(=O)c1nnc(NC(=O)C(C)(C)C)s1", "Potency": "inconclusive: 8.91 µM [inhibitor, partial curve, poor fit]"},
      {"smiles": "CC(C)Cn1c(-c2csc3c2CCCC3)n[nH]c1=S", "Potency": "inconclusive: 7.94 µM [inhibitor, partial curve]"},
      {"smiles": "Clc1ccc(Cc2ccc(Cl)nn2)c(Cl)c1", "activity change, negative = inhibition": "inactive: 0%"},
      {"smiles": "CC1(C)CCCC2(C)C(OCCO)=CC(=O)C=C12", "note": "(stereo not drawn)", "activity change, negative = inhibition": "inactive: -3.65%"},
      {"smiles": "CCCOc1ccc(S(=O)(=O)NCc2ccc(OC)cc2)cc1", "Potency": "inconclusive: 28.2 µM [inhibitor, single point]"},
      {"smiles": "CCCCC1=CC2=C(c3ccco3)C(=O)C(C)(OC(=O)c3ccc(OC)cc3)C(=O)C2=CN1c1ccccc1", "note": "(stereo not drawn)", "Potency": "inconclusive: 2 µM [inhibitor, full curve, poor fit]"},
      {"smiles": "CC(C)(C)OC(=O)N1CCC(c2c(C(=O)Nc3ccc4c(c3)OCCO4)cnn2-c2ccc(F)cc2)CC1", "Potency": "inconclusive: 12.6 µM [inhibitor, partial curve, poor fit]"},
      {"smiles": "CC(CN1CCCC1)OC(=O)c1ccccc1Cl", "note": "(stereo not drawn)", "activity change, negative = inhibition": "inactive: 5.8%"},
      {"smiles": "O=C(CSc1ccc2ccccc2n1)NCCC1=CCCCC1", "Potency": "inconclusive: 11.2 µM [inhibitor, partial curve, poor fit]"},
      {"smiles": "COc1ccc(CNCC(O)(c2ccc(Cl)cc2)c2ccc(Cl)cc2)cc1OC", "Potency": "inconclusive: 12.6 µM [inhibitor, single point]"},
      {"smiles": "O=C(Nc1ccc(Cl)cc1)NN1CCCCCC1", "Potency": "inconclusive: 28.2 µM [inhibitor, single point]"},
      {"smiles": "CN(C)C(CNC(=O)c1sc2ccccc2c1Cl)c1ccco1", "note": "(stereo not drawn)", "Potency": "inconclusive: 10 µM [inhibitor, single point]"},
      {"smiles": "COC(=O)c1cn(-c2ccccc2)nc1-c1ccc(OC)cc1", "activity change, negative = inhibition": "inactive: -10.6%"},
      {"smiles": "COc1ccc(C2CC(c3ccccc3)=NN2C(=O)COC(=O)c2cccnc2Cl)cc1", "note": "(stereo not drawn)", "Potency": "inconclusive: 3.55 µM [inhibitor, partial curve, poor fit]"},
      {"smiles": "Cc1ccc(CCNC(=O)CN2C(=O)COc3ccc(S(=O)(=O)N4CCCCC4)cc32)cc1", "Potency": "inconclusive: 14.1 µM [inhibitor, single point] and inconclusive: 11.2 µM [inhibitor, partial curve, poor fit]"},
      {"smiles": "Cc1ccc(C(CC(=O)NCC2(c3ccccc3)CCCC2)c2ccccc2)c(O)c1", "note": "(stereo not drawn)", "Potency": "inconclusive: 28.2 µM [inhibitor, single point]"},
      {"smiles": "O=C(CCSCc1ccc(Cl)cc1)NC1CCCC1", "Potency": "inconclusive: 14.1 µM [inhibitor, single point]"},
      {"smiles": "COc1ccc(C(=O)Nc2ccc(OCc3ccccc3)cc2)cc1[N+](=O)[O-]", "activity change, negative = inhibition": "inactive: 45.2%"},
      {"smiles": "c1csc(-c2nnc(N3CCCCCC3)c3ccccc23)c1", "Potency": "inconclusive: 28.2 µM [inhibitor, single point]"},
      {"smiles": "COc1ccc(-n2nnnc2C(c2cccc3ccccc23)N2CCN(C/C=C/c3ccccc3)CC2)cc1", "note": "(stereo not drawn)", "Potency": "inconclusive: 14.1 µM [inhibitor, partial curve, poor fit]"},
      {"smiles": "Nc1nc2ccccc2cc1C(=O)NCc1ccc(Cl)cc1Cl", "Potency": "inconclusive: 11.2 µM [inhibitor, partial curve, poor fit]"}
    ]}
  ]
}
